# According to PubChem BioAssay AID1461 (National Center for Advancing Translational Sciences (NCATS), 2008):
# Screen size: about 220,000 compounds; about 2,300 (1%) were called active. This list was built around the results that the source calls inconclusive (neither active nor inactive); the mix of calls is not that of the screen. Calls follow the shape of the dose curve; as a rule, active = well fitted inhibition curve with a large enough effect; inconclusive = small, poorly fitted or top-dose-only effect, or effect the other way; inactive = no such curve, though single readings can be large or run the other way. Potencies of inconclusive entries are left out as doubtful fits.
# Target: Neuropeptide S receptor (Homo sapiens) (UniProt Q6W5P4)
# Experiment: qHTS Assay for Antagonists of the Neuropeptide S Receptor: cAMP Signal Transduction; also: nearly all actives have a fitted effect of over 50% in size
# Settings: CHO-NPSR cells, cAMP TR-FRET, antagonist mode; activity change, negative = inhibition: at 38.3 µM (top of the series) unless noted
# % is scaled to controls: 0 for no effect and ±100 for the full control effect; potency is read from the fitted curve at half-maximal effect; tags tell the direction and shape of the fitted curve.
# Sequence of UniProt Q6W5P4 (Q6W5P4 whole entry, looked up): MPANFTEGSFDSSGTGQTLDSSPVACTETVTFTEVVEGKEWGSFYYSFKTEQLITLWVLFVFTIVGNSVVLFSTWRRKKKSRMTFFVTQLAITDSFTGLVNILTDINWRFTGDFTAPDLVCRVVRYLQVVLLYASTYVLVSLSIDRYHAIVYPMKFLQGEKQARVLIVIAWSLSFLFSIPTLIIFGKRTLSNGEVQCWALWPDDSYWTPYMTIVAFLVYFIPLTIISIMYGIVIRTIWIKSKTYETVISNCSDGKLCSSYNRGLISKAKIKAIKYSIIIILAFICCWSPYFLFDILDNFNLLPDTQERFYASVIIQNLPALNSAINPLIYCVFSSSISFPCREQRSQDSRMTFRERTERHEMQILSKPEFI
SMILES,Potency,"activity change, negative = inhibition"
Cc1cc(OCc2ccccc2)ccc1/C(O)=C1/C(=O)C(=O)N(Cc2cccnc2)C1c1ccncc1 (centres undefined),"inconclusive [activator, partial curve]",–
COc1cccc(C(C(=O)NC2CCCCC2)N(C(=O)c2cccs2)c2ccc3c(c2)OCO3)c1 (centres undefined),inactive,–
Cc1cccc(NC(=O)CC2S/C(=N/c3nccs3)N(C)C2=O)c1 (centres undefined),inactive,–
CN(C)Cc1ccccc1C1(O)c2ccccc2CSc2ccccc21 (centres undefined),"inconclusive [inhibitor, partial curve]",–
CCN(CCCNC(=O)c1cn(CC)c2ccc(S(=O)(=O)N(C)C)cc2c1=O)c1cccc(C)c1,"inconclusive [inhibitor, partial curve]",–
Nc1nnc(SCC(=O)c2ccc([N+](=O)[O-])cc2)s1,inactive,–
CCCOc1cc(CC(=O)NCc2ccco2)ccc1OC,"inconclusive [inhibitor, single point]",–
O=C(NNC(=O)c1cc(OCC(F)(F)F)ccc1OCC(F)(F)F)c1ccc(Cl)c(Cl)c1,"inconclusive [inhibitor, single point]",–
COc1ccc(S(=O)(=O)Nc2ccc(F)cc2)cc1N(C)S(=O)(=O)c1ccc(Cl)cc1,"inconclusive [inhibitor, partial curve]",–
Cc1ccc(S(=O)(=O)Nc2ccc3nc(-c4cccn4C)[nH]c3c2)cc1,inactive,–
O=C(c1cn(-c2ccccc2)nc1-c1cccs1)N(CCO)Cc1ccccc1,"inconclusive [inhibitor, partial curve]",–
Cc1ccc(S(=O)(=O)N(Cc2n[nH]c(=S)n2-c2ccccc2)c2cccc(Cl)c2)cc1,"inconclusive [activator, partial curve]",–
Cc1nn(Cc2ccccc2Cl)c2sc(C(=O)NCc3ccc4c(c3)OCO4)cc12,"inconclusive [inhibitor, partial curve, poor fit]",–
Cc1ccc(C)c(CSc2nnc(-c3cccs3)n2Cc2ccco2)c1,"inconclusive [inhibitor, partial curve]",–
CCSc1ncc(/C=N/Nc2ccc(Cl)cc2)n1C,"inconclusive [inhibitor, single point]",–
COc1ccc(Cl)cc1NC(=O)CN(c1ccccc1)S(=O)(=O)N(C)C,"inconclusive [inhibitor, partial curve]",–
CC(C)CCN1CCN(Cc2ccoc2)CC1CCO (centres undefined),inactive,–
C#CCOCCOCCOCCNc1nc(N2CCN(C(=O)[C@H](Cc3cc4ccccc4[nH]3)n3cc([C@@H](N)C(C)CC)nn3)CC2)nc(N2CCN(C(=O)[C@H](Cc3cc4ccccc4[nH]3)n3cc([C@@H](N)Cc4ccc(O)cc4)nn3)CC2)n1 (some centres undefined),"inconclusive [activator, single point]",–
CCCN1C2CCCC1CC(NC(=O)Nc1ccc(C(C)C)cc1)C2 (centres undefined),"inconclusive [inhibitor, single point]",–
O=C(Nc1ccccc1N1CCN(C(=O)c2ccc(Cl)cc2)CC1)c1ccc(Br)cc1,"inconclusive [inhibitor, partial curve]",–
Cc1ccc(S(=O)(=O)NC2CCCCC2)c2nsnc12,inactive,–
CCC(Oc1cc(Cl)ccc1Cl)C(=O)NN1C(=O)C2C3CCC(C3=C(C)C)C2C1=O (centres undefined),"inconclusive [inhibitor, single point]",–
CNc1sc(C(=O)c2ccc(F)cc2)c(N)c1-c1nc2ccccc2s1,"inconclusive [inhibitor, single point]",–

SMILES,Potency,"activity change, negative = inhibition"
Cc1ccc(CNc2nc(C)nc3sc4c(c23)CCC4)cc1,"inconclusive [inhibitor, single point]",–
O=C(CNC(=O)c1ccccc1)NC1(C(=O)NC2CCCC2)CCCCC1,inactive,–
CCc1nnc(NS(=O)(=O)c2ccc(N=Cc3c(C)[nH]n(-c4ccc(C)cc4)c3=O)cc2)s1,"inconclusive [inhibitor, partial curve]",–
N#CC(=C1SC=CS1)c1nc(-c2ccccc2)cs1,"inconclusive [inhibitor, partial curve]",–
CCOC(=O)c1ccc(/C=C2/C=C(c3ccccc3)N(c3ccc(Cl)c(C(=O)O)c3)C2=O)cc1,active: 12.6 µM,–
O=C(c1ccc(Oc2cc(Cl)cc(Cl)c2)o1)N1CCCCC1,"inconclusive [activator, single point]",–
COc1ccc(-n2c(Cc3cccn3C)nnc2SCC(=O)Nc2ccc(C)c(Cl)c2)cc1,"inconclusive [inhibitor, single point]",–
CCOc1cc(CN2CCSCC2)ccc1O,inactive,–
Cn1c(=O)c(=O)n(C)c2cc(S(=O)(=O)N3CCN(Cc4ccccc4)CC3)ccc21,"inconclusive [inhibitor, single point]",–
CC(C)[C@H](NC(=O)c1ccco1)C(=O)OCC(=O)N1CCc2ccccc21,inactive,–
Cc1ccc(/C=C2\S/C(=N/S(=O)(=O)c3cccs3)NC2=O)cc1,"inconclusive [activator, single point]",–
CCOC(=O)C1CN(S(=O)(=O)c2cccc(C(F)(F)F)c2)c2cc(CC(=O)OC)ccc2O1 (centres undefined),"inconclusive [inhibitor, partial curve]",–
CC(C)Oc1ccc(C(=O)NC2CCCCC2)cc1,inactive,–
CCOc1cc(C(F)(F)F)cnc1/C(N)=N/O,"inconclusive [activator, single point]",–
CCc1nc2ccccc2c(=O)n1NC(=O)c1c(O)c2ccccc2[nH]c1=O,"inconclusive [inhibitor, single point]",–
CCCCOC(=O)Nc1cc(C(=O)OC)ccc1C(=O)OC,inactive,–
O=C(COC(=O)c1ccccc1SCC(=O)NC1CCCCC1)NC1CCCCC1,"inconclusive [activator, single point]",–
Nc1ccccc1-c1nc2ccccc2[nH]1,"inconclusive [activator, full curve, poor fit]",–
Cc1cccc(N2C(=O)CC(N3CCN(Cc4ccc5c(c4)OCO5)CC3)C2=O)c1 (centres undefined),–,inactive: 3.02% [at 7.67 µM]
COc1ccc(Cc2nnc(NC(=O)C3CCCO3)s2)cc1 (centres undefined),"inconclusive [inhibitor, partial curve, poor fit]",–
COc1ccc(NC(=O)C=C(C)C)cc1Cl,"inconclusive [activator, partial curve, poor fit]",–
N#Cc1cc2cc3c(cc2nc1SCC(=O)OC1CCCCC1)OCO3,"inconclusive [activator, single point]",–
COc1ccccc1OCCCn1c(C)c(C#N)c2ccccc21,"inconclusive [inhibitor, single point]",–

SMILES,Potency,"activity change, negative = inhibition"
Cc1ccc(CNC(=O)C(=O)NCC2CCCO2)cc1 (centres undefined),"inconclusive [activator, single point]",–
COc1ccccc1OCC(=O)O,inactive,–
O=c1c2c3c(sc2n(CCN2CCCC2)c(=O)n1Cc1ccco1)CCCCC3,"inconclusive [inhibitor, single point]",–
Cc1ccccc1-c1ccc(=O)n(CC(=O)Nc2ccc(N3CCOCC3)cc2)n1,"inconclusive [inhibitor, single point]",–
Cc1ccc(C(=O)OCn2ncc(Cl)c(Cl)c2=O)cc1,"inconclusive [inhibitor, full curve, poor fit]",–
CCOc1ccc(OCc2ccc(C(=O)N3CCOCC3)cc2)cc1,inactive,–
Cc1ccc2c(c1)C(=O)C(=O)N2CC(=O)Nc1ccc(N2CCOCC2)cc1,inactive,–
Cc1csc(N/N=C/c2ccc(O)c([N+](=O)[O-])c2)n1,active: 10 µM,–
CCn1c(COc2ccccc2)nnc1SCc1ccc(C#N)cc1,inactive,–
CCC(C)(C)NC(=S)Nc1ccc(-c2nc3ccc(C)cc3s2)cc1,"inconclusive [inhibitor, single point]",–
O=C1S/C(=C\c2ccc(N3CCOCC3)o2)C(=O)N1Cc1c(F)cccc1Cl,"inconclusive [inhibitor, partial curve]",–
COc1ccc(Oc2ccc(/C=C/C(=O)c3ccc(O)cc3)cc2[N+](=O)[O-])cc1,"inconclusive [inhibitor, single point]",–
Nn1c(SCC(=O)NC2CCCCC2)nnc1C1CC1,"inconclusive [activator, full curve, poor fit]",–
O=c1cc(CN2CCN(C/C=C/c3ccccc3)CC2)c2cc(O)ccc2o1,"inconclusive [inhibitor, full curve]",–
COc1cc(NC(=O)CN(C)S(=O)(=O)c2ccc3c(c2)CCC(=O)N3)cc(OC)c1,inactive,–
CN1c2ccccc2C(C)(C)[C@]12C=Cc1cc(O)ccc1O2,active: 12.6 µM,–
C=CCOC(=O)C1=C(C)Nc2nnnn2C1c1cccs1 (centres undefined),inactive,–
COc1cc(CN2CCC(CO)(Cc3cccc(C(F)(F)F)c3)CC2)ccc1F,"inconclusive [inhibitor, single point]",–
CC(=O)/C(C)=N/O,"inconclusive [activator, single point]",–
Cc1cc(NC(=O)CSc2nc3c(cc2C#N)CCCC3)no1,"inconclusive [inhibitor, single point]",–
COC(=O)c1sc(NC(=O)Cc2cccs2)nc1C,inactive,–
O=C1C(=O)N(Cc2cccc([N+](=O)[O-])c2)c2ccccc21,inactive,–
COc1ccc(Cl)cc1-n1c(C)cc(C(=O)O)c1C,inactive,–
